# ± gives the standard deviation of the averaged measurements. This is one part of the list.
# System: PfAP2-G AP2 domain (GST-tagged)
# Assay: gcPBM binding intensity (ln(normalized median fluorescence intensity)); higher = stronger DNA binding
# Method in brief: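 GST-tagged P. falciparum DNA-binding domains, expressed in E. coli (about 25 μg on average), were applied for 1 h to an Agilent 4 × 180k array of primer-extended double-stranded 36-bp intergenic genomic probes plus negative controls. The binding buffer was 1× PBS with 1% milk, 0.2 mg/ml BSA, 0.5% salmon testes DNA and 0.03% Triton X-100. Bound protein was detected with Alexa488 anti-GST antibody and scanned at 488 nm. Binding intensity is the highest Masliner-normalised natural-log median intensity across replicate spots of either probe orientation.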
row,Sequence,gcPBM binding intensity (ln)
1,TACAATGAAAAAATAACATGCAATTATATTTCTCTT [TGCATGCA_site833],9.43 ± 0.28
2,AATTTTGTTGAGCACACACACATACATACATACATA [CACACA_site3154],10.4 ± 0.25
3,AAATATATTTTATTTTGTACTTATGTATAAAATATA [XGTACX_site914],11.1 ± 0.82
4,ATAACATATTTCTTTTGTACTCAAAATAAAATTAAT [XGTACX_site2479],11.4 ± 1.1
5,ATTAAATTTCCTTGAGTGCACATTTTGTTAAAATAT,10.5 ± 0.3
6,GTGCCATTTAAAAAATGTACAAGAAAATGTTCATCA [XGTACX_site2865],10.8 ± 0.33
7,TGGTATTGAATTTTTTGTACACATAAAATATATATA [XGTACX_site7614],11.2 ± 0.88
8,TATTTTAATTTTTTTTTGTTTTTTCTAATACATGTA [CACACA_negctrl_site1399],9.605 ± 0.049
9,TTTTTTTTGGTATAATGTACATTTTCACTTATGTAT [XGTACX_site3259],10.9 ± 0.44
10,ATTTTATTTTCTCACACACACATATATATATATATA [CACACA_site5781],10.3 ± 0.47
11,ACATATGTTAAAAAGGCATGCATTCTTTTTATTTTA [TGCATGCA_site1043],9.66 ± 0.11
12,ACCAAAAAAAAAAAAAAAAAAATATACATATATATA [GTGCAC_negctrl_site582],9.57 ± 0.23
13,TATTTTCCCTCCATATGTACTTAATTATAAGCACAT [XGTACX_site4000],11.2 ± 0.89
14,TATATATCGCATAAAACACACAAAAAAAAAATTAAA [CACACA_site7767],9.94 ± 0.21
15,ATATATATCTTTTGTGTGCACATATATATAATATAT,10.5 ± 0.35
16,AAAAAAAAAATATACACACACACATACACATAAATA [CACACA_site3808],10.14 ± 0.092
17,TTATATTCTATTTATTGTACTTAAATATATATATAT [XGTACX_site6400],11.2 ± 0.95
18,ATTTCATTTATAAGGATATCTACTTTTTATTTTAAT [GTGCAC_negctrl_site59],9.915 ± 0.049
19,AAACGAAAAAAATGGTGTACATTAAAATGAAAATTG [XGTACX_site7040],11.5 ± 0.88
20,TCTATCTTTTCCAAACGTACATTTTTTATATAAATT [XGTACX_site5352],11.1 ± 0.58
21,CACCAAACTAAATGTACACACATACATAAATATAAA [CACACA_site4765],11.3 ± 0.88
22,AAAAACAAAAAAAAAACACACAATTCTAGTTATTTT [CACACA_site2767],9.61 ± 0.23
23,ACTTTATTTTCCTGTACACACATTTGACATATTAAA [CACACA_site3378],11.6 ± 0.94

row,Sequence,gcPBM binding intensity (ln)
1,TTTTTTATTTTATTTTATTTTTATTTTTTTTTTTTT [GTGCAC_negctrl_site596],9.54 ± 0.085
2,AACATTATTTTGTGTACACATTCGGTTATATTATAT [CACACA_site5628],11.8 ± 1
3,AAAAAAAAGAAACACACACACATACACATAAATATA [CACACA_site3807],10 ± 0.057
4,ATATTTTTTTCATAGACACACACAATATATCTGTTT [CACACA_site8993],9.94 ± 0.057
5,TTTTTTTTCCTAATGTGTACTAAAAATGAACAATAA [XGTACX_site5248],11.4 ± 0.99
6,AGTTTTTACTCTAATGGTACAGTGCAACTAATAAAT [XGTACX_site6950],10.9 ± 0.61
7,TAAACATAAATATGCACACATATACAGATATTCATA [CACACA_site5471],9.825 ± 0.035
8,TTTTACTTAAGACACACACACACAAAAAAAAAAAAA [CACACA_site6573],10.1 ± 0.59
9,ATAAAATACATATAAACACACATATAAACCGACATA [CACACA_site2477],9.97 ± 0.071
10,TAAGTATACACATACACACACACACTAAAAAAAAAA [CACACA_site6337],10.2 ± 0.35
11,TTTATGTAAAAATATAGTACATATTAAAAGATAAGA [XGTACX_site8134],11.2 ± 0.8
12,ATATATTCCATAAAGGTGCTGTTAACGTGTCAACGT [GTGCAC_site9402],10.1 ± 0.14
13,AAAAAATATAAAAAAAGTACACAAAAACTACAAAAA [XGTACX_site2677],11.6 ± 1
14,TTTAATCATTTTATTTGTACTCATAAAAAATATAAT [XGTACX_site5537],11.3 ± 1
15,AAAAAGAGGAAAAAGATAAAGAAATTAAAGGAGAGA [CACACA_negctrl_site423],9.775 ± 0.049
16,TATCATTGTTCATGCTTGCACTTTTGTTACTGTTCC [GTGCAC_site9425],10.16 ± 0.014
17,GAAAATTTATATTGCACACATAGGGAATAAAAAAAA [CACACA_site2146],10.2 ± 0.11
18,TGTATGAAAATAAATGCATGCCAAATATATATATAT [TGCATGCA_site132],9.94 ± 0.33
19,AAAATGAAATATGTTATATATATATATATATATATA [CACACA_negctrl_site1752],9.94 ± 0.69
20,TCTGTAAACATATTCACACACATAAATTCGCATATA [CACACA_site1866],9.95 ± 0.11
21,ACAAAATAATTGTTTACACACCCATTTGTAATTTTA [CACACA_site3615],9.93 ± 0.099
22,ATGGACAAGTTAAACGCACACAAATATATACAGACA [CACACA_site1652],10.5 ± 0.31
23,TAATATGAAATGTGTACACACGCACCCACAAAAAAA [CACACA_site8949],11.8 ± 0.93

row,Sequence,gcPBM binding intensity (ln)
1,GTTTATGTATTATTATGTACGTATCATAATATATAT [XGTACX_site2385],11.5 ± 0.82
2,TAATTTCCTTAAGAATGTACTTACATTTTATTATTT [XGTACX_site5998],11.1 ± 0.63
3,TTTTTATTATTTAAATGTACATATAAATATATATAT [XGTACX_site6870],11.2 ± 0.71
4,ATGTTTTTAATTTATTGTACATTAATTTGTATTATT [XGTACX_site253],11 ± 0.67
5,TTTTCTTTTCTCTTCTTTTTCTCCCATTATTAATCT [XGTACX_negctrl_site406],9.72 ± 0.18
6,GAGGATGCCTATGGCACACATTATAAAACTGTCGCT [CACACA_site4322],10.04 ± 0.014
7,AAGAAGAAACGGAAAAGTACAAAGAAGAAATAAGTA [XGTACX_site3680],11.1 ± 0.67
8,CTTACAGACATATATACACACATGTATATTTTATAT [CACACA_site549],10.02 ± 0.085
9,AGAAATATCTAATTGTGTACTCAAGAAAAAGTTACG [XGTACX_site372],11.5 ± 0.93
10,CATAAAATTGTGAAGTGTACATATTTTTAAATATAA [XGTACX_site8986],11.5 ± 0.76
11,ATAACTTTATTTTCCTGTACACACATTTGACATATT [XGTACX_site7192],11.4 ± 0.73
12,ATATATAATATAAGATGTACAATAAAATCTATATAT [XGTACX_site546],11.1 ± 0.63
13,TACAAATATATAAAATGTACATATATATACATATTA [XGTACX_site3029],10.9 ± 0.55
14,TTTATTTTCATATGAACACACATATAAATATTATAA [CACACA_site7172],10.1 ± 0.2
15,ATATTTTATATGTTCACACATACATAAACATATTTT [CACACA_site4948],10.1
16,GAATAAAAATTTTAATGTACATATTTTTTATTTATA [XGTACX_site8935],11.2 ± 0.65
17,GGTAGTTATTATCTCCGTACTTATAAAGAAAAAAGG [XGTACX_site4674],10.9 ± 0.63
18,ATATGCTAATAAAATTGTACATATTATTCATATTGT [XGTACX_site2344],10.9 ± 0.49
19,ATTTTTCCTCTCTTTTGTACTTATATATATATATAT [XGTACX_site7405],11.3 ± 0.99
20,ATAAATACTTTTTGGTGTACACTTTTAAATGAAAAA [XGTACX_site3042],11.8 ± 1
21,CAATTAAAGAAAAACAGTACGTGTATCAAACATCCT [XGTACX_site8990],11 ± 0.37
22,ATATATTTTTAGCACAGTACAATATAATTAAATATA [XGTACX_site6779],10.6 ± 0.4
23,TGACTACATAAAATGACACACACAAACTTTAAAATT [CACACA_site9151],9.98 ± 0.099

row,Sequence,gcPBM binding intensity (ln)
1,TAAATGGATTGTTCAGGTACACATAAATATGATATT [XGTACX_site6963],11.2 ± 0.78
2,AAAAGTTGTTTATAATGTACAAGGTAGAAAAAAACA [XGTACX_site1454],10.9 ± 0.29
3,AACAAAATAAAAATAACACACACATTTATATATATA [CACACA_site8313],9.78 ± 0.2
4,ATTATATTATTTTAAAGTACACACATATATTAATAT [XGTACX_site4769],11.6 ± 0.91
5,ATATTATATAATAATGCATGCACCTTATTTTCATTT [TGCATGCA_site405],9.94 ± 0.042
6,TTTTTTATTTTGTGCACACACATAAAAATATAAATA [CACACA_site6497],10.6 ± 0.49
7,TACTCTTTCCAGAAGTGTACATAGAAATAATTACAT [XGTACX_site2668],11.2 ± 0.71
8,AATGTATTAAAATTACGTACATATGCACATTTTATA [XGTACX_site5046],11.3 ± 0.83
9,CAAGCACAGAAACACACACACACACCGACACAGACA [CACACA_site4359],10.3 ± 0.35
10,AAAAAAAAAAAAAAAAGTACTAAATGTAAAAGAATA [XGTACX_site2164],11.2 ± 0.49
11,TAAAAATAATATATTTGTACATATGTGTATACATAA [XGTACX_site741],10.7 ± 0.38
12,TATAAATACATACATACACACATATATATATATATT [CACACA_site6116],10.2 ± 0.17
13,TCCTAAAAAAAAAAAAAAAATGAAAAAGGAAAAAAA [CACACA_negctrl_site1646],9.61 ± 0.028
14,AGCATTTCTTTTACATGTACATAATATTTTTAATAA [XGTACX_site1968],11.3 ± 0.74
15,TAGTATTATTATTATGCACACAAAAATATTTATACA [CACACA_site9219],10.2 ± 0.23
16,TTTTTTTTTTTTTTTTGTACATAATTATATATTTAC [XGTACX_site7540],10.9 ± 1
17,AAGAAAAAACAAACATGTACACATAATTTAGTTTTT [XGTACX_site3121],11.4 ± 0.89
18,AAAAAAAAAAAAAAAAAAATAAAAAATAAATAAATA [CACACA_negctrl_site1498],10.3 ± 0.54
19,TATATATGTATGTATGCATGCCCTTTTTTAAAAAAA [TGCATGCA_site434],10.3 ± 0.24
20,AAGAAAAATATATATATAAATAAATAAATATATATA [TGCATGCA_negctrl_site330],9.365 ± 0.049

# From the supplement of paper PMC11417369
